# Measured values as given in PubChem BioAssay AID1463 (National Center for Advancing Translational Sciences (NCATS), 2008).
# Out of some 280,000 compounds screened, about 2,600 (0.93%) were called active. Another 8% or so got no clear call; they are omitted. The call rests on the fitted dose curve; in most records, active means well fitted curve in the direction sought with a large enough effect; inconclusive means small, poorly fitted or top-dose-only effect; inactive means flat fitted curve, though single readings scatter. This is a selection; strong and weak results do not stand in their true shares.
# Test: Counterscreen qHTS for Inhibitors of Tau Fibril Formation, Fluorescence Polarization; further: nearly all actives have a fitted effect of over 55% in size
# Conditions: tau K18 P301L Alexa594 fluorescence, heparin fibrillization; series mostly up to 57.7 µM; activity change, negative = decrease: at the top concentration
# Method in brief: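 Human tau K18 P301L (15 uM unlabeled, 0.24 uM Alexa 594-labeled) in 100 mM sodium acetate pH 7 with 20 uM heparin, 6 hr at 37 C. ThT 30 uM added, 1 hr ambient; Alexa 594 FP and total fluorescence read at 555/632 nm.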
# On the % scale 0 is the no-effect control and ±100 the full control effect; potency means the concentration at half of the fitted maximal effect; tags describe the fitted curve by direction and shape or compound fluorescence and quenching.
Compound,"activity change, negative = decrease",Potency
CCOC(=O)C1=C(C)NC(C)=C(C(=O)OCC)C1,inactive: -10.3%,–
CCN(CC)c1ccc(/C=N/NC(=O)Nc2ccccc2)cc1,–,active: 14.1 µM [quencher]
CC1(C)Oc2ccc3ccc(=O)oc3c2C[C@H]1O,inactive: 5.81%,–
CC(C)c1ccc(CNc2nc(-c3ccco3)nn2C(=O)c2ccc([N+](=O)[O-])cc2)cc1,–,active: 15.8 µM [quencher]
COCC(=O)O[C@]1(CCN(C)CCCc2nc3ccccc3[nH]2)CCc2cc(F)ccc2[C@@H]1C(C)C,–,inactive
N#C/C(=C\Nc1ccccc1O)c1nc2ccccc2o1,–,active: 17.8 µM [quencher]
COc1cccc(Nc2nc(-c3sc(N)nc3C)cs2)c1,–,active: 14.1 µM [quencher]
O=C(NCc1ccco1)/C(=C/c1ccco1)NC(=O)c1ccco1,inactive: -11%,–
O=C1NC(=O)/C(=C/c2ccc(N3CCOCC3)o2)N1,inactive: -17.8%,–
CC(C)C[C@H](NC(=O)c1[nH]cnc1C(=O)N[C@@H](C)c1ccccc1)C(=O)OCc1ccccc1,inactive: -20.5%,–
NC(C(=O)O)c1cc(O)cc(O)c1 (stereo not drawn),inactive: -3.99%,–
CN1C(=CC=C2C=C(I)C(=O)C(I)=C2)C(C)(C)c2ccccc21,–,active: 0.708 µM [fluorescent]
O=C(NCc1nc2ccccc2[nH]1)C1=C[C@@H](c2ccc3c(c2)OCO3)C[C@@H](OCc2ccc(CO)cc2)O1,inactive: -15.3%,–
COc1ccc(-c2nc3ccc(NS(=O)(=O)c4ccc(C)cc4)cc3o2)cc1,–,active: 15.8 µM [quencher]
Oc1[nH]c2ccccc2c1N=NC(=S)NCCc1ccccc1,–,active: 12.6 µM [quencher]
Cc1cccc2sc(N(CCCN(C)C)C(=O)c3ccc(Cl)s3)nc12,inactive: -29%,–
O=C(Nc1ccc(F)c(Cl)c1)N1CC=C(c2c[nH]c3ccccc23)CC1,–,active: 7.94 µM [quencher]
CCOC(=O)CCN1C(=O)[C@H]2[C@H]3[C@H](O)[C@H](O)C/C(=N/OCc4ccccc4)[C@@H]3CC[C@@H]2C1=O,inactive: -3.65% [at 11.6 µM],–
CCn1c2ccccc2c2cc(NC(=O)Cc3ccc(S(=O)(=O)N4CCOCC4)s3)ccc21,–,active: 7.94 µM [quencher]
COC(=O)c1sc(S(=O)(=O)N2CCN(c3ccc(OC)cc3)CC2)c(C(=O)OC)c1C,inactive: -7.94%,–
CC(C)S(=O)(=O)c1csc(NC(=O)Nc2ccc(Cl)cc2)c1,–,active: 15.8 µM [quencher]
NS(=O)(=O)c1ccc(Nc2nc(-c3ccccc3)cs2)cc1,–,active: 15.8 µM [quencher]
COC(=O)C1(C(=O)OC)Cc2conc2[C@H]1c1ccccc1,–,inactive
N#C/C(=C\c1ccc(O)c(O)c1)C(=O)NCc1ccccc1,–,inactive
Nc1ccc(CCNc2ncnc3c2ncn3C2OC(CO)C(O)C2O)cc1 (stereo not drawn),inactive: -2.4%,–
OC(CN1CCN(c2cccc(Cl)c2)CC1)C(c1ccccc1)c1ccccc1 (stereo not drawn),–,inactive
O=c1[nH]c(=O)n([C@H]2C[C@H](O)[C@@H](CO)O2)cc1Br,inactive: -6.87%,–

Compound,"activity change, negative = decrease",Potency
COc1cccc(Nc2nc(-c3cccc(N4C(=O)c5ccccc5C4=O)c3)cs2)c1,–,active: 7.94 µM [quencher]
CC(=O)Nc1ccc(S(=O)(=O)N2CCN(c3nc(NC4CCCC4)c4ccccc4n3)CC2)cc1,–,active: 14.1 µM [quencher]
CO/N=C(/C(=O)NC1C(=O)N2C(C(=O)O)=C(CSc3nc(=O)c(O)nn3C)CSC12)c1csc(N)n1 (stereo not drawn),–,inactive
CC(Cc1ccc(O)c(O)c1)(NN)C(=O)O (stereo not drawn),inactive: -23.8%,–
Cc1ccc(C)c(NC(=O)CN(C)S(=O)(=O)c2cccc3cccnc23)c1,inactive: -5.38%,–
COCCN=C1OC(=O)N2C(=O)C3=C4[C@@H](C[C@H]5C(=O)N(c6ccccc6)C(=O)[C@H]5[C@H]4[C@@]12Cc1ccccc1)[C@H]1C(=O)N(c2ccccc2)C(=O)[C@H]1[C@H]3C,inactive: -4.81%,–
Cc1ccc(-c2cc(N)n(-c3ccc(C)cc3)n2)cc1,inactive: -20.4%,–
CN(Cc1cnc2nc(N)nc(N)c2n1)c1ccc(C(=O)N[C@@H](CCC(=O)O)C(=O)O)cc1,–,inactive
COc1cccc(-c2nc(SCC(=O)Nc3ccc4c(c3)OCO4)c(-c3ccccc3)[nH]2)c1,–,active: 7.94 µM [quencher]
COc1ccc(Cl)cc1NC(=O)CCc1nc(-c2ccccc2F)no1,inactive: -25.2%,–
CCCCC1=CC2=C(c3ccco3)C(=O)C(C)(OC(=O)c3ccc(OC)cc3)C(=O)C2=CN1CC1CC1 (stereo not drawn),inactive: -6.8% [at 11.6 µM],–
Cn1cc(C(=O)NCc2ccc(F)cc2)c(=O)c2cc(S(=O)(=O)N3CCCCC3)ccc21,inactive: -27.1%,–
CCOC(=O)C1CCN(c2nc(-c3ccc(Br)cc3)nc3ccccc23)CC1,inactive: -14.8%,–
CC(C)c1ccc2c(c1)c(SC(C)(C)C)c(CC(C)(C)C(=O)O)n2Cc1ccc(Cl)cc1,inactive: -10.8%,–
COc1cc(C)c(C(=O)Oc2cc(C)c(C(=O)O)c(O)c2C)c(OC)c1C,inactive: -7.31%,–
O=C(Cn1c[n+](CC(=O)c2ccc([N+](=O)[O-])cc2)cn1)c1ccc([N+](=O)[O-])cc1,inactive: -23.1%,–
O=C(COC(=O)CCc1c[nH]c2ccccc12)NC(c1ccccc1)c1ccccc1,–,active: 14.1 µM [quencher]
COc1ccc(O)c(C2=Nc3ccccc3N=C(c3ccccc3)C2)c1,inactive: -29.6%,–
COc1cccc([C@@H]2Oc3ccc(OC)cc3C(=O)[C@H]2OC(=O)NCc2ccc3c(c2)OCO3)c1,inactive: -11.7%,–
COc1cc([C@@H]2Nc3c(F)cccc3[C@@H]3C=CC[C@@H]32)cc(Br)c1OC,inactive: -15.9%,–
CCCOC(=O)c1ccc(Oc2cn[nH]c2-c2ccc(OC)cc2O)cc1,–,active: 11.2 µM [quencher]
O=C(NCc1nc2ccccc2[nH]1)C1=C[C@H](c2ccc(Br)cc2)C[C@H](OCc2ccc(CO)cc2)O1,inactive: -24.7%,–
COc1ccc(-c2n[nH]c(=S)n2/N=C/C=C\c2ccccc2OC)cc1,inactive: -21%,–
CCOC(=O)c1nc(Nc2ccc(C(=O)OC)cc2)c2ccccc2n1,inactive: -18.7%,–
CCN(CC)S(=O)(=O)c1ccc2[nH]cc(C(=O)NCCc3ccccc3)c(=O)c2c1,inactive: -27.8%,–
CCC1=C(OC(=O)N(CC)CC)N2C(=O)OC(=NCCc3c[nH]c4ccccc34)[C@]2(Cc2ccccc2)[C@H]2C1=CC[C@H]1C(=O)N(c3ccccc3)C(=O)[C@H]12,inactive: -10.9%,–
